Among all 410,000 compounds or so, about 6,400 (1.6%) were called active. The shares of active, inactive and inconclusive entries below differ from those in the screen. Calls come from the whole dose curve; as a rule, active = well fitted inhibition curve with a large enough effect; inconclusive = small, poorly fitted or top-dose-only effect; inactive = no such curve, though single readings can be large or run the other way. Potencies of inconclusive entries are left out as doubtful fits.
Target: Glucagon-like peptide 1 receptor (Homo sapiens) (UniProt P43220)
Experiment: qHTS of GLP-1 Receptor Inverse Agonists (Inhibition Mode); note: nearly all actives have a fitted effect of over 55% in size
Conditions: HEK293 GLP-1R CRE-luciferase, luminescence, 24 h, GLP-1R form is constitutively active; activity change, negative = inhibition: at 38.3 µM (top of the series) unless noted
Method in brief: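 Assay principle: reduced luminescence from a cAMP-responsive reporter in HEK293 cells co-expressing a constitutively active GLP-1R. Conditions: 24 hr compound incubation, 37 deg C, 5% CO2.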
% is set by controls: 0 for no effect and ±100 for the full control effect; potency is the fitted concentration of half-maximal effect; tags give direction and shape of the fitted curve.

Sequence of UniProt P43220 (P43220 whole entry, looked up): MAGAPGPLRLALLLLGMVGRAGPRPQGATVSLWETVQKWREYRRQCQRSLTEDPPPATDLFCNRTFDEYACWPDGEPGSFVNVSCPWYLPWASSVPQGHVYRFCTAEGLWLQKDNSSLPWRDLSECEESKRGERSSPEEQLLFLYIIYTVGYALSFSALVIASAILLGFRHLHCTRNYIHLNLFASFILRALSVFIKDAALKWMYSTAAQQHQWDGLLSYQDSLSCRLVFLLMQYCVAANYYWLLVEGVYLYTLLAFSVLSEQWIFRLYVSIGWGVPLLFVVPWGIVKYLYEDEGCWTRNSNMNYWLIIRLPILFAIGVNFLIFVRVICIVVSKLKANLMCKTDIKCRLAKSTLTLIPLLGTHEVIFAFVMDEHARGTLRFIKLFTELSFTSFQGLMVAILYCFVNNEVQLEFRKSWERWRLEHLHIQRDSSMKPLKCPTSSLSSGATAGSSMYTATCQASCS

Row | Structure (SMILES) | Potency | activity change, negative = inhibition
1 | CCOC(=O)N1CCN(CC(=O)Nc2ccc(Oc3ccccc3)cc2)CC1 | inconclusive [inhibitor, single point] | 
2 | CCn1c(CNC(=O)c2cc(OC)c(OC)c(OC)c2)cc2cc(C)ccc21 |  | inconclusive: -48.7% [inhibitor]
3 | COc1ccc(N2C(=O)c3ccccc3C(C)(C)C2=O)cc1 | inconclusive [inhibitor, single point] | 
4 | Cc1ccc(N2C(=O)N(CC(=O)c3cc(C)ccc3C)C(=O)C2C)cc1 (stereo not given) | inconclusive [inhibitor, single point] | 
5 | Cc1ccc(-c2ccc(CCC(=O)O)n2CC2CCCO2)cc1 (stereo not given) |  | inactive: 0%
6 | CCOC(=O)C1=C(c2ccccc2)c2ccc(OC)cc2N(S(=O)(=O)C(F)(F)F)C1C(=O)OCC (stereo not given) | inconclusive [inhibitor, single point] | 
7 | CCOC(=O)c1cccc(NC(=O)NC(C)c2c(-n3cccc3)sc3c2CCN(C)C3)c1 (stereo not given) | inconclusive [inhibitor, single point] | 
8 | C=CCn1c(SCc2ccc(C#N)cc2)nnc1-c1cccc(Cl)c1 | inconclusive [inhibitor, single point] | 
9 | Cc1ccc(Nc2c([N+](=O)[O-])c(=O)n(C)c3ccccc23)cc1C | inconclusive [inhibitor, full curve, poor fit] | 
10 | CCN(CC(=O)Nc1cccc(F)c1)CC(=O)Nc1ccccc1OC | inconclusive [inhibitor, partial curve, poor fit] | 
11 | COc1ccc(/C=N/NC(=O)CN(Cc2ccccc2)S(=O)(=O)c2ccc3c(c2)OCCO3)cc1 | inconclusive [inhibitor, single point] | 
12 | O=C(Cc1ccccc1)Nc1cccc(NC(=O)c2ccccc2)c1 | inconclusive [inhibitor, partial curve, poor fit] | 
13 | COc1ccc(C2CN=NC23CCc2ccccc2C3=O)cc1 (stereo not given) | inconclusive [inhibitor, partial curve, poor fit] | 
14 | O=C(NCCNc1ccc([N+](=O)[O-])cc1C(F)(F)F)c1cccc(F)c1 | inconclusive [inhibitor, full curve, poor fit] | 
15 | O=S(=O)(NC(=NCCc1ccc(Cl)cc1)c1ccccc1Cl)c1cccs1 | inconclusive [inhibitor, single point] | 
16 | COC(=O)CCC(=O)Nc1ccc(S(=O)(=O)Nc2nc(C)cc(C)n2)cc1 |  | inactive: -5.3%
17 | Cc1c(C(=O)NCc2ccccc2CN2CCCC2)oc2ccc(F)cc12 | inconclusive [inhibitor, single point] | 
18 | Cn1c(=O)cc(Nc2ccccc2)c2c(=O)n(-c3ccccc3)c(=O)n(-c3ccccc3)c21 | inconclusive [inhibitor, partial curve, poor fit] | 
19 | O=C(CCCOc1ccc(Cl)cc1Cl)NCCCn1ccnc1 | inconclusive [inhibitor, partial curve] | 
20 | CC(=O)c1cccc(NC(=O)Cn2nc(-c3ccccc3Cl)ccc2=O)c1 | inconclusive [inhibitor, full curve, poor fit] | 

Row | Structure (SMILES) | Potency | activity change, negative = inhibition
21 | CCOc1ccc(NS(=O)(=O)c2cc(C(=O)N3CCN(c4ccccc4O)CC3)ccc2Cl)cc1 | inconclusive [inhibitor, single point] | 
22 | Cc1ccccc1CN1CCN(CC(=O)NCc2ccccc2)CC1 | inconclusive [inhibitor, single point] | 
23 | COc1ccccc1C(=O)N1CCN(c2cccc(C(F)(F)F)c2)CC1 | inconclusive [inhibitor, partial curve, poor fit] | 
24 | C=CCn1c(C)cc(C(=O)CN2NS(=O)(=O)c3ccccc3C2=O)c1C | inconclusive [inhibitor, single point] | 
25 | FC(F)(F)c1ccccc1/C=N/n1c(C2CCCCC2)n[nH]c1=S | inconclusive [inhibitor, single point] | 
26 | c1ccc2c(c1)N1CCCN=C1N2CCN1CCCCC1 | inconclusive [inhibitor, single point] | 
27 | Cc1ccc(-c2ccc(CN3C(C(C)C)C(=O)N(Cc4cn(CCC5OCCO5)nn4)CCS3(=O)=O)cc2)c(C)c1 (stereo not given) | inconclusive [inhibitor, single point] | 
28 | CCN(CC)S(=O)(=O)c1ccc(N2CCN(S(=O)(=O)c3ccc4c(c3)OCCO4)CC2)nc1 | inconclusive [inhibitor, single point] | 
29 | CCOC(=O)c1c(C)[nH]c(C)c1S(=O)(=O)N1c2ccccc2CC1C (stereo not given) | inconclusive [inhibitor, partial curve] | 
30 | CCc1cc(-c2nnn(CCC3COCCO3)c2CC)ccc1-c1cn(Cc2ccccc2)nn1 (stereo not given) | inconclusive [inhibitor, single point] | 
31 | Cc1ccc(C(=O)C(C)OC(=O)c2cc3cc([N+](=O)[O-])ccc3oc2=O)cc1 (stereo not given) |  | inactive: -2.16%
32 | Cc1ccc(-c2c[n+](CC(=O)Nc3ccccc3C)c3n2CCC3)cc1 |  | inactive: -23.4%
33 | C[C@@H]1CN(C(=O)c2nc3ccc(Cl)cn3c2CN2CCc3sccc3C2)C[C@H](C)O1 |  | inactive: -21.7%
34 | Cc1ccc(-c2csc(N3CCN(c4cc5c(cc4Cl)nc(C)n5CCN4CCCCC4)CC3)n2)cc1 | inconclusive [inhibitor, single point] | 
35 | CC[C@@H]1Cc2cc(O)ccc2C2=C1c1ccc(O)cc1C[C@H]2CC | inconclusive [inhibitor, single point] | 
36 | CC1(C)Cc2c(C#N)c(N)sc(=S)c2CS1 |  | inactive: 0.501%
37 | CC(Oc1cccc(Cl)c1)C(=O)N1CCCN(C)CC1 (stereo not given) | inconclusive [inhibitor, single point] | 
38 | NC(=O)NCCc1ccccc1 |  | inactive: 6.97%
39 | CCOC(=O)C(CCCOc1ccc(C(C)CC)cc1)C(=O)OCC (stereo not given) | active: 10 µM | 
40 | Cc1ccc(S(=O)(=O)N2CCC(C(=O)NC3CC(C)(C)NC(C)(C)C3)CC2)cc1 | inconclusive [inhibitor, partial curve] | 

Source: PubChem BioAssay AID624417 (National Center for Advancing Translational Sciences (NCATS), 2012)
